{"source": "PubChem BioAssay AID1460", "about": "(National Center for Advancing Translational Sciences (NCATS), 2008)", "note": "Out of some 270,000 compounds screened, about 5,800 (2.1%) were called active. This list was built around the results that the source calls inconclusive (neither active nor inactive); the mix of calls is not that of the screen. Calls follow the shape of the dose curve; as a rule, active = well fitted inhibition curve with a large enough effect; inconclusive = small, poorly fitted or top-dose-only effect; inactive = flat fitted curve, though single readings scatter. Potencies beside an inconclusive call are fits to weak or partial responses and may not hold up. % is scaled to controls: 0 for no effect and ±100 for the full control effect; potency is read from the fitted curve at half-maximal effect; tags tell the direction and shape of the fitted curve."}
{"target": "Microtubule-associated protein tau (Homo sapiens) (UniProt P10636)", "sequence (P10636 whole entry, looked up, the tested form may be a part)": "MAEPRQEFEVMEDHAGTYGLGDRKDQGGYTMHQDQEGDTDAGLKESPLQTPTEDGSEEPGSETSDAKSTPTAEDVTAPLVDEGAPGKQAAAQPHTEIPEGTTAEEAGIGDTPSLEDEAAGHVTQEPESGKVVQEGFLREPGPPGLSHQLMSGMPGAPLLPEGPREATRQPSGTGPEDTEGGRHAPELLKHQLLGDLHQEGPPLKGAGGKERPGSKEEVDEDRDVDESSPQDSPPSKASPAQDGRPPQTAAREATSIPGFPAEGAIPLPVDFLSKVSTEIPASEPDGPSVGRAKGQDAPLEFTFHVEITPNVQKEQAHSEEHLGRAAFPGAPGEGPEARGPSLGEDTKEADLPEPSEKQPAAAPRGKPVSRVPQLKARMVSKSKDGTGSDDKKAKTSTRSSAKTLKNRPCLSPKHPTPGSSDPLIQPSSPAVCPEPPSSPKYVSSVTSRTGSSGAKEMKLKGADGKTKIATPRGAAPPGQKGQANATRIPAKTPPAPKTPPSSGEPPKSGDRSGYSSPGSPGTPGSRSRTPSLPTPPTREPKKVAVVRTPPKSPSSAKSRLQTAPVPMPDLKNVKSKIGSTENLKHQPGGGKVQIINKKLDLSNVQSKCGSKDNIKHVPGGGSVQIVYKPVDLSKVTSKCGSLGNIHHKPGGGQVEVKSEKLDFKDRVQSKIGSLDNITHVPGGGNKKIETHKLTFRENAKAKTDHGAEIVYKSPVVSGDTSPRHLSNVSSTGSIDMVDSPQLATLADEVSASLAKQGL", "experiment": "qHTS for Inhibitors of Tau Fibril Formation, Thioflavin T Binding; also: nearly all actives have a fitted effect of over 55% in size", "settings": "recombinant tau K18 P301L (four-repeat tau fragment), heparin-induced fibrillization, ThT fluorescence; series mostly up to 57.4 µM; activity, negative = inhibition: at the top concentration", "summary_of_the_method": "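Recombinant human tau K18 fragment […] carrying P301L, 15 uM unlabeled plus 0.24 uM Alexa 594-labeled, was fibrillized with 20 uM heparin in 100 mM sodium acetate pH 7 for 6 hr at 37 C; 30 uM ThT fluorescence read after 1 hr.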"}
{"smiles": "COc1ccc(Nc2nc(C(=O)NCc3ccco3)cs2)cc1", "Potency": "inconclusive: 11.2 µM [inhibitor, partial curve]"}
{"smiles": "CC1CCC(C(C)C)C(OC(=O)COC(=O)c2cccn2C)C1", "note": "(stereo not drawn)", "Potency": "inconclusive: 44.7 µM [inhibitor, single point]"}
{"smiles": "CCOC(=O)c1c(NC(=O)c2cc(-c3ccccc3OC)on2)sc(C)c1C", "Potency": "inconclusive: 31.6 µM [inhibitor, single point]"}
{"smiles": "O=C(COc1ccccc1F)Nc1ccc2nc(SCC(=O)N3CCc4ccccc43)sc2c1", "Potency": "inconclusive: 0.631 µM [inhibitor, full curve]"}
{"smiles": "O=C(N/N=C/c1ccc(Br)o1)c1ccc2c(c1)OCCO2", "Potency": "inconclusive: 4.47 µM [inhibitor, partial curve]"}
{"smiles": "Oc1ccc(Cl)cc1C=Nc1ccc2c3c(cccc13)CC2", "Potency": "inconclusive: 31.6 µM [inhibitor, partial curve]"}
{"smiles": "O=C1OCCN1C(=O)[C@H]1[C@H](c2ccc([N+](=O)[O-])cc2)C(c2cccc(Cl)c2)=NN1c1ccccc1", "Potency": "inconclusive: 35.5 µM [inhibitor, partial curve]"}
{"smiles": "Nc1nnc(SCC(=O)Nc2sc3c(c2C(=O)c2ccccc2)CCCC3)s1", "Potency": "inconclusive: 15.8 µM [inhibitor, single point]"}
{"smiles": "CCc1ccccc1NC(=O)Cn1nc2c3cc(F)ccc3n(Cc3cccc(C)c3)cc-2c1=O", "Potency": "inconclusive: 10 µM [inhibitor, partial curve]"}
{"smiles": "COc1ccc(NC(=O)CCc2c(C)nc3c(c2C)c(=O)n(C)c(=O)n3C)c(OC)c1", "activity, negative = inhibition": "inactive: -16.9%"}
{"smiles": "O=[N+]([O-])c1ccccc1/C=N\\N1CCN(c2ccccc2)CC1", "Potency": "active: 11.2 µM"}
{"smiles": "COc1ccc(-c2nnn(CC#N)n2)cc1OC", "Potency": "inconclusive: 39.8 µM [inhibitor, single point]"}
{"smiles": "O=C(COc1ccccc1Cl)Nc1ccc(OCc2cc(=O)n3ccsc3n2)cc1", "Potency": "inconclusive: 2.24 µM [inhibitor, full curve, poor fit]"}
{"smiles": "CC1=NN(C(N)=S)C(=O)C1N=Nc1ccccc1", "note": "(stereo not drawn)", "Potency": "inconclusive: 5.62 µM [inhibitor, partial curve]"}
{"smiles": "Oc1ccccc1-c1nc(-c2cccs2)c(-c2cccs2)[nH]1", "Potency": "active: 14.1 µM"}
{"smiles": "O/C(=C\\c1ccc2ccccc2n1)c1ccc(O)cc1O", "Potency": "active: 1.78 µM"}
{"smiles": "CCc1ccc2[nH]cc(S(=O)(=O)c3ccc(C(C)C)cc3)c(=O)c2c1", "activity, negative = inhibition": "inactive: 6.45%"}
{"smiles": "CC1(C)CC(=O)C(Br)=C(O)C1", "Potency": "inconclusive: 28.2 µM [inhibitor, single point]"}
{"smiles": "Cc1cc(C)cc(OCCSc2nc3ccc(NC(=O)c4ccc5c(c4)OCO5)cc3s2)c1", "Potency": "inconclusive: 1.78 µM [inhibitor, partial curve]"}
{"smiles": "COc1ccccc1C(=O)NNC1=C(C(=O)C(F)(F)F)CCC1", "Potency": "inconclusive: 7.08 µM [inhibitor, partial curve]"}
{"smiles": "Cc1ccc(SCc2ccc(C(=O)N3CCCC3)cc2)cc1", "Potency": "inconclusive: 17.8 µM [inhibitor, single point]"}
{"smiles": "CCN(CC)c1ccc(C2=NNC(=O)CC2C)cc1[N+](=O)[O-]", "note": "(stereo not drawn)", "Potency": "inconclusive: 10 µM [inhibitor, partial curve]"}
{"smiles": "CCCN(CCC)C1=N/C(=C\\c2ccco2)C(=O)N1c1ccccc1", "Potency": "inconclusive: 28.2 µM [inhibitor, partial curve]"}
{"smiles": "O=C(NCC(=O)N1CCN(S(=O)(=O)c2cccs2)CC1)c1ccc(Cl)cc1", "activity, negative = inhibition": "inactive: -0.864%"}
{"smiles": "COc1ccc(C(C)(C)C)cc1S(=O)(=O)N1CCN(C)CC1", "activity, negative = inhibition": "inactive: -11.6%"}
{"smiles": "COc1cccc2sc(NNC(=O)C3=COCCO3)nc12", "Potency": "inconclusive: 11.2 µM [inhibitor, partial curve]"}
{"smiles": "Fc1cnc(N2CCN(c3ccccc3)CC2)nc1N1CCN(c2ccccc2)CC1", "Potency": "inconclusive: 0.631 µM [activator, partial curve]"}
{"smiles": "CCc1ccc(OCC(=O)Nc2ccc3c(c2)c2ccccc2n3CC)cc1", "Potency": "inconclusive: 8.91 µM [inhibitor, partial curve]"}
{"smiles": "CCOC(=O)c1cccc(NC(=O)c2ncoc2-c2ccco2)c1", "activity, negative = inhibition": "inactive: 0.72%"}
{"smiles": "COc1cccc(CN2CCNC(=O)C2CC(=O)N2CCCCO2)c1OC", "note": "(stereo not drawn)", "activity, negative = inhibition": "inactive: -5.59%"}
{"smiles": "COC(=O)c1ccc(NC(=O)CN2CCN(S(=O)(=O)c3cc(Cl)ccc3OC)CC2)cc1", "activity, negative = inhibition": "inactive: 3.44%"}
{"smiles": "Cc1nc2ccc(NC(=O)c3ccc(Cl)c([N+](=O)[O-])c3)cc2s1", "Potency": "inconclusive: 1.78 µM [inhibitor, full curve]"}
{"smiles": "O=C(CSc1ccccc1Cl)N1CCC(c2nc3ccccc3s2)CC1", "Potency": "inconclusive: 11.2 µM [inhibitor, partial curve]"}
{"smiles": "Cc1cc(C(=O)CSc2nncs2)c(C)n1-c1c(C)n(C)n(-c2ccccc2)c1=O", "activity, negative = inhibition": "inactive: -6.47%"}
{"smiles": "CCON1C(=O)C(C)(C)N(OCC)C(=O)C1(C)C", "activity, negative = inhibition": "inactive: 2.82%"}
{"smiles": "COc1ccc(/C=N/n2cc(-c3ccc(OC)cc3)nc2N)cc1", "Potency": "inconclusive: 17.8 µM [inhibitor, partial curve]"}
{"smiles": "O=C(Nc1ccc(Oc2c(F)c(F)c(F)c(F)c2F)cc1)OC1CCN2Cc3ccccc3N=C12", "note": "(stereo not drawn)", "Potency": "inconclusive: 25.1 µM [inhibitor, partial curve]"}
{"smiles": "Cc1ccc(C(=O)N2CCC3(CC2)Oc2ccc(F)cc2C(=O)C32CC(c3ccc(Cl)cc3)=NO2)s1", "note": "(stereo not drawn)", "Potency": "inconclusive: 39.8 µM [inhibitor, single point]"}
{"smiles": "O=C(C1=C[C@@H](c2ccc(C(F)(F)F)cc2)C[C@@H](OCc2ccc(CO)cc2)O1)N1CCN(Cc2ccc3c(c2)OCO3)CC1", "Potency": "inconclusive: 22.4 µM [inhibitor, single point]"}
{"smiles": "CC(=O)C1C(=O)c2c(cccc2[N+](=O)[O-])C1=Nc1cccc(Cl)c1", "note": "(stereo not drawn)", "Potency": "inconclusive: 17.8 µM [inhibitor, partial curve]"}
{"smiles": "CCOC(=O)C(=CNCC(=O)O)C(=O)OCC", "activity, negative = inhibition": "inactive: -4.54%"}
{"smiles": "COC(=O)c1ccccc1NC(=O)Cn1cnc2sc(C)c(S(=O)(=O)N3CCC(C)CC3)c2c1=O", "activity, negative = inhibition": "inactive: -2.67%"}
{"smiles": "COc1ccc(C2/C=C\\CN(C(=O)c3ccc(C)cc3)CC(=O)N2Cc2ccc(F)cc2)cc1", "note": "(stereo not drawn)", "activity, negative = inhibition": "inactive: 0.847%"}
{"smiles": "O=C(CSc1ccc(-c2ccco2)nn1)NCc1ccccc1", "Potency": "inconclusive: 20 µM [inhibitor, partial curve]"}
{"smiles": "CCOc1ccc(/C=N/NC(=O)c2c(C)n(C)c3ccc(OC)cc23)cc1", "Potency": "inconclusive: 8.91 µM [inhibitor, full curve]"}
{"smiles": "Cn1c(C(=O)NCCN2CCCCCC2)cc2c(=O)n(C)c3ccccc3c21", "Potency": "inconclusive: 15.8 µM [inhibitor, partial curve]"}
{"smiles": "COc1cccc(Nc2nc3cc(C)ccc3nc2NS(=O)(=O)c2ccc(Cl)cc2)c1", "Potency": "inconclusive: 2.82 µM [inhibitor, full curve]"}
{"smiles": "Cc1[nH]c2ccccc2c1/C=N/NC(=O)c1cccc(S(=O)(=O)Nc2cccc(C(F)(F)F)c2)c1", "Potency": "inconclusive: 15.8 µM [inhibitor, partial curve]"}
{"smiles": "COC(=O)c1ccc(/C=C(\\C#N)c2ccccn2)cc1", "Potency": "inconclusive: 15.8 µM [inhibitor, partial curve]"}
{"smiles": "N#Cc1c(N2CCCC2)nc(N)c2c(N)nc(N3CCCC3)cc12", "Potency": "inconclusive: 11.2 µM [inhibitor, partial curve]"}
{"smiles": "O=S(=O)(c1ccccc1)c1nc(-c2ccccc2Cl)oc1N1CCCCCC1", "activity, negative = inhibition": "inactive: -7.33%"}
{"smiles": "CCOc1ccc(Nc2nc(Cl)nc(N3CCN(c4ccc(OC)cc4)CC3)n2)cc1", "Potency": "inconclusive: 1.58 µM [inhibitor, full curve]"}
{"smiles": "COc1ccc(C)cc1C(=O)CCC(=O)Nc1ccccc1N1CCOCC1", "Potency": "inconclusive: 39.8 µM [inhibitor, single point]"}
{"smiles": "COCCN(CCOC)c1cc(C)c(C#N)c2nc3ccccc3n12", "Potency": "inconclusive: 44.7 µM [inhibitor, single point]"}
{"smiles": "Cc1ccc(CNC(=O)C(C)n2c(=O)cc(C(F)(F)F)c3c(C)nn(C)c32)cc1", "note": "(stereo not drawn)", "activity, negative = inhibition": "inactive: -0.786%"}
{"smiles": "COc1ccccc1Cc1nc(-c2ccc(Br)o2)no1", "Potency": "inconclusive: 15.8 µM [inhibitor, partial curve]"}
{"smiles": "CCCCc1ccc(NC(=O)COc2ccc(C(=O)Nc3ccccc3C)cc2)cc1", "activity, negative = inhibition": "inactive: -10.8%"}
{"smiles": "CC(=O)c1ccc(OCC(O)Cn2nnc3ccccc32)cc1", "note": "(stereo not drawn)", "Potency": "inconclusive: 20 µM [inhibitor, single point]"}
{"smiles": "Cc1cccc(S(=O)(=O)Nc2nc3ccccc3nc2NCc2ccco2)c1", "Potency": "inconclusive: 39.8 µM [inhibitor, partial curve]"}
{"smiles": "CC1(C)CC(=O)C(C=Nc2cc(C(=O)c3ccccc3)ccc2N)=C(O)C1", "Potency": "inconclusive: 25.1 µM [inhibitor, single point]"}
{"smiles": "NC(=O)c1cc(N=Nc2c(N)[nH]n(-c3c(Cl)cc(Cl)cc3Cl)c2=O)ccc1Cl", "Potency": "inconclusive: 12.6 µM [inhibitor, partial curve]"}
{"smiles": "CCCCn1c(=O)c2[nH]c(C34CC5CC(CC3C5)C4)nc2n(CCCO)c1=O", "activity, negative = inhibition": "inactive: -2.61%"}
{"smiles": "Cc1nc2ccccc2n1-c1ccccc1", "activity, negative = inhibition": "inactive: -1.1%"}
{"smiles": "O=C(Nc1ccc(N2CCOCC2)cc1)c1ccc(Cl)nc1", "Potency": "inconclusive: 8.91 µM [inhibitor, partial curve]"}
{"smiles": "CSc1ncccc1C(=O)OCC(=O)c1cc2ccccc2o1", "Potency": "inconclusive: 22.4 µM [inhibitor, partial curve, poor fit]"}
{"smiles": "Cc1ccccc1N(C)S(=O)(=O)c1nnc(NC(=O)c2ccco2)s1", "Potency": "inconclusive: 2 µM [inhibitor, full curve, poor fit]"}
{"smiles": "CC1=C(/C=C/C(C)=C/C=C/C(C)=C\\CO)C(C)(C)CCC1", "Potency": "inconclusive: 28.2 µM [inhibitor, single point]"}
{"smiles": "Cc1ccc2nc(/C(C#N)=C/c3ccccc3F)[nH]c2c1", "Potency": "inconclusive: 14.1 µM [inhibitor, partial curve]"}
